# Results from the supplement of paper PMC8728848.
# The other results are listed elsewhere or left out.
# B1: Gal 3C (Homo sapiens), P17931 (protein)
# chain: YGAPAGPLIVPYNLPLPGGVVPRMLITILGTVKPNANRIALDFQRGNDVAFHFNPRFNENNRRVIVCNTKLDNNWGREERQSVFPFESGKPFKIQVLVEPDHFKVAVNDAHLLQYNHRVKKLNEISKLGISGDIDLTSASYTMI
# How the values were obtained:
# Assay in all cases: glycan array binding signal (z-score within array); higher = stronger binding
# Settings in all cases: glycan notation: IUPAC condensed, linker removed
# [1] = biological target: Fuc(a1-2)[GalNAc(a1-3)]Gal(b1-3)GlcNAc(b1-3)GalNAc
# In short: (§1)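 Glycan array data came from 3228 arrays in the Consortium for Functional Glycomics database, and only arrays with an available protein sequence were kept. Glycan names were put into IUPAC-condensed notation, and columns mapping to the same glycan were averaged. The binding signal is a within-array Z-score, averaged across arrays of one protein sequence run at different concentrations or buffers and across linkers. A negative Z-score can be read as non-binding.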
# [2] = biological target: Fuc(a1-2)[GalNAc(a1-3)]Gal(b1-3)GlcNAc(b1-6)GalNAc
# In short: as §1
# [3] = biological target: Fuc(a1-2)[GalNAc(a1-3)]Gal(b1-4)Glc
# In short: as §1
# [4] = biological target: Fuc(a1-2)[GalNAc(a1-3)]Gal(b1-4)GlcNAc
# In short: as §1
# [5] = biological target: Fuc(a1-2)[GalNAc(a1-3)]Gal(b1-4)GlcNAc(b1-2)Man
# In short: as §1
# [6] = biological target: Fuc(a1-2)[GalNAc(a1-3)]Gal(b1-4)GlcNAc(b1-2)Man(a1-3)[Fuc(a1-2)[GalNAc(a1-3)]Gal(b1-4)GlcNAc(b1-2)Man(a1-6)]Man(b1-4)GlcNAc(b1-4)GlcNAc
# In short: as §1
# [7] = biological target: Fuc(a1-2)[GalNAc(a1-3)]Gal(b1-4)GlcNAc(b1-2)Man(a1-3)[Fuc(a1-2)[GalNAc(a1-3)]Gal(b1-4)GlcNAc(b1-2)Man(a1-6)]Man(b1-4)GlcNAc(b1-4)[Fuc(a1-6)]GlcNAc
# In short: as §1
# [8] = biological target: Fuc(a1-2)[GalNAc(a1-3)]Gal(b1-4)GlcNAc(b1-3)Gal(b1-4)GlcNAc
# In short: as §1
# [9] = biological target: Fuc(a1-2)[GalNAc(a1-3)]Gal(b1-4)GlcNAc(b1-3)Gal(b1-4)GlcNAc(b1-3)Gal(b1-4)GlcNAc
# In short: as §1
# [10] = biological target: Fuc(a1-2)[GalNAc(a1-3)]Gal(b1-4)GlcNAc(b1-3)GalNAc
# In short: as §1
# [11] = biological target: Fuc(a1-2)[GalNAc(a1-3)]Gal(b1-4)GlcNAc(b1-3)[Fuc(a1-2)[GalNAc(a1-3)]Gal(b1-4)GlcNAc(b1-6)]GalNAc
# In short: as §1
# [12] = biological target: Fuc(a1-2)[GalNAc(a1-3)]Gal(b1-4)GlcNAc(b1-6)GalNAc
# In short: as §1
# [13] = biological target: Fuc(a1-2)[GalNAc(a1-3)]Gal(b1-4)[Fuc(a1-3)]GlcNAc
# In short: as §1
# [14] = biological target: Fuc(a1-2)[GalNAc(a1-3)]Gal(b1-4)[Fuc(a1-3)]GlcNAc(b1-3)GalNAc
# In short: as §1
# [15] = biological target: Fuc(a1-2)[GalNAc(a1-4)]Gal(b1-4)GlcNAc
# In short: as §1
# [16] = biological target: Fuc(a1-2)[GalNAc(b1-3)]Gal
# In short: as §1
# Fuc(a1-3)GlcNAc = biological target: Fuc(a1-3)GlcNAc
# In short: as §1
# [17] = biological target: Fuc(a1-3)[Gal(b1-4)]Glc6S
# In short: as §1
# [18] = biological target: Fuc(a1-3)[Gal(b1-4)]GlcNAc
# In short: as §1
# [19] = biological target: Fuc(a1-3)[Gal(b1-4)]GlcNAc(b1-2)Man
# In short: as §1
# [20] = biological target: Fuc(a1-3)[Gal(b1-4)]GlcNAc(b1-2)Man(a1-3)[Fuc(a1-3)[Gal(b1-4)]GlcNAc(b1-2)Man(a1-6)]Man(b1-4)GlcNAc(b1-4)GlcNAc
# In short: as §1
# [21] = biological target: Fuc(a1-3)[Gal(b1-4)]GlcNAc(b1-2)Man(a1-3)[Fuc(a1-3)[Gal(b1-4)]GlcNAc(b1-2)Man(a1-6)]Man(b1-4)GlcNAc(b1-4)[Fuc(a1-6)]GlcNAc
# In short: as §1
# [22] = biological target: Fuc(a1-3)[Gal(b1-4)]GlcNAc(b1-3)Gal(b1-3)[Fuc(a1-4)]GlcNAc
# In short: as §1
# [23] = biological target: Fuc(a1-3)[Gal(b1-4)]GlcNAc(b1-3)Gal(b1-4)[Fuc(a1-3)]GlcNAc
# In short: as §1
# [24] = biological target: Fuc(a1-3)[Gal(b1-4)]GlcNAc(b1-3)Gal(b1-4)[Fuc(a1-3)]GlcNAc(b1-3)Gal(b1-4)[Fuc(a1-3)]GlcNAc
# In short: as §1
# [25] = biological target: Fuc(a1-3)[Gal(b1-4)]GlcNAc(b1-3)GalNAc
# In short: as §1
# [26] = biological target: Fuc(a1-3)[Gal(b1-4)]GlcNAc(b1-6)GalNAc
# In short: as §1
# [27] = biological target: Fuc(a1-3)[Gal(b1-4)]GlcNAc(b1-6)[Gal(b1-3)GlcNAc(b1-3)]Gal(b1-4)Glc
# In short: as §1
# [28] = biological target: Fuc(a1-3)[Gal(b1-4)]GlcNAc6S
# In short: as §1
# [29] = biological target: Fuc(a1-3)[Gal3S(b1-4)]Glc
# In short: as §1
# [30] = biological target: Fuc(a1-3)[Gal3S(b1-4)]GlcNAc
# In short: as §1
# [31] = biological target: Fuc(a1-3)[Gal3S(b1-4)]GlcNAc6S
# In short: as §1
# [32] = biological target: Fuc(a1-3)[GalNAc(b1-4)]GlcNAc
# In short: as §1
# [33] = biological target: Fuc(a1-3)[GalNAc(b1-4)]GlcNAc6S
# In short: as §1
# Fuc(a1-4)GlcNAc = biological target: Fuc(a1-4)GlcNAc
# In short: as §1
# Fuc(b1-3)GlcNAc = biological target: Fuc(b1-3)GlcNAc
# In short: as §1
# Gal(a1-2)Gal = biological target: Gal(a1-2)Gal
# In short: as §1
# Gal(a1-3)Gal = biological target: Gal(a1-3)Gal
# In short: as §1
# Gal(a1-3)Gal(b1-3)GlcNAc = biological target: Gal(a1-3)Gal(b1-3)GlcNAc
# In short: as §1
# [34] = biological target: Gal(a1-3)Gal(b1-3)GlcNAc(b1-2)Man
# In short: as §1
# [35] = biological target: Gal(a1-3)Gal(b1-3)GlcNAc(b1-2)Man(a1-3)[Gal(a1-3)Gal(b1-3)GlcNAc(b1-2)Man(a1-6)]Man(b1-4)GlcNAc(b1-4)GlcNAc
# In short: as §1
# [36] = biological target: Gal(a1-3)Gal(b1-3)GlcNAc(b1-3)GalNAc
# In short: as §1
# [37] = biological target: Gal(a1-3)Gal(b1-3)GlcNAc(b1-6)GalNAc
# In short: as §1
# [38] = biological target: Gal(a1-3)Gal(b1-3)[Fuc(a1-4)]GlcNAc(b1-2)Man(a1-3)[Gal(a1-3)Gal(b1-3)[Fuc(a1-4)]GlcNAc(b1-2)Man(a1-6)]Man(b1-4)GlcNAc(b1-4)GlcNAc
# In short: as §1
# Gal(a1-3)Gal(b1-4)Glc = biological target: Gal(a1-3)Gal(b1-4)Glc
# In short: as §1
binder,measurement,setting,value
B1,glycan array binding signal (z-score),[1],-0.191
same,glycan array binding signal (z-score),[2],-0.229
same,glycan array binding signal (z-score),[3],-0.117
same,glycan array binding signal (z-score),[4],0.703
same,glycan array binding signal (z-score),[5],0.944
same,glycan array binding signal (z-score),[6],0.961
same,glycan array binding signal (z-score),[7],-0.024
same,glycan array binding signal (z-score),[8],1.2
same,glycan array binding signal (z-score),[9],1.54
same,glycan array binding signal (z-score),[10],-0.148
same,glycan array binding signal (z-score),[11],0.25
same,glycan array binding signal (z-score),[12],-0.21
same,glycan array binding signal (z-score),[13],-0.078
same,glycan array binding signal (z-score),[14],3.76
same,glycan array binding signal (z-score),[15],-0.361
same,glycan array binding signal (z-score),[16],-0.188
same,glycan array binding signal (z-score),Fuc(a1-3)GlcNAc,-0.322
same,glycan array binding signal (z-score),[17],-0.238
same,glycan array binding signal (z-score),[18],-0.343
same,glycan array binding signal (z-score),[19],-0.317
same,glycan array binding signal (z-score),[20],-0.35
same,glycan array binding signal (z-score),[21],-0.205
same,glycan array binding signal (z-score),[22],-0.276
same,glycan array binding signal (z-score),[23],-0.304
same,glycan array binding signal (z-score),[24],-0.136
same,glycan array binding signal (z-score),[25],-0.191
same,glycan array binding signal (z-score),[26],-0.149
same,glycan array binding signal (z-score),[27],-0.379
same,glycan array binding signal (z-score),[28],-0.105
same,glycan array binding signal (z-score),[29],-0.29
same,glycan array binding signal (z-score),[30],-0.139
same,glycan array binding signal (z-score),[31],-0.341
same,glycan array binding signal (z-score),[32],-0.26
same,glycan array binding signal (z-score),[33],-0.269
same,glycan array binding signal (z-score),Fuc(a1-4)GlcNAc,-0.197
same,glycan array binding signal (z-score),Fuc(b1-3)GlcNAc,-0.343
same,glycan array binding signal (z-score),Gal(a1-2)Gal,-0.361
same,glycan array binding signal (z-score),Gal(a1-3)Gal,-0.371
same,glycan array binding signal (z-score),Gal(a1-3)Gal(b1-3)GlcNAc,-0.333
same,glycan array binding signal (z-score),[34],-0.35
same,glycan array binding signal (z-score),[35],-0.243
same,glycan array binding signal (z-score),[36],-0.29
same,glycan array binding signal (z-score),[37],-0.299
same,glycan array binding signal (z-score),[38],-0.221
same,glycan array binding signal (z-score),Gal(a1-3)Gal(b1-4)Glc,-0.304
